Measurements published in article PMC6377682 (2019).

Tests used:
Assay in all cases: BLI
[1] = biological target: ASPP2^E1090K/D1093S (human, UniProt Q13625, in part, E1090K | D1093S)
[2] = biological target: ASPP1^K1052E/S1055D (human, UniProt Q96KQ4, in part, K1052E | S1055D)
[3] = biological target: ASPP2^D1091G/E1092P (human, UniProt Q13625, in part, D1091G | E1092P)
[4] = biological target: ASPP2^D1093S (human, UniProt Q13625, in part, D1093S)

- Kd [1]: 102 nM
- Kd [2]: 21.8 nM
- Kd [3]: 29.6 nM
- Kd [4]: 96 nM
B1: human PP1α^[…] (enzyme)
chain: not shown
